According to patent US10299477B2 (priority 2015, dated 2019):

Experiments:
Assay type in all cases: in vivo
Puccinia recondita = assay: Test Example E: Brown rust on wheat; conditions: for Test E (control value class, brown rust on wheat): in vivo; for Test E control value (brown rust on wheat): preventive, control value class
From the text: [Test Example E] Brown Rust on Wheat

Botrytis cinerea = assay: Test Example B: Gray mold on tomato; conditions: for Test B (control value class, gray mold on tomato): in vivo; for Test B control value (gray mold on tomato): preventive, control value class
From the text: [Test Example B] Gray Mold on Tomato
Seeds of a test plant (tomato variety: Oogata Fukuju) were planted followed by cultivating until three to five first leaves (true leaves) appeared.

[1] = tested on: Blumeria graminis f sp. hordei; assay: Test Example D: Powdery mildew on barley; conditions: for Test D (control value class, powdery mildew on barley): in vivo; for Test D control value (powdery mildew on barley): preventive, control value class
From the text: [Test Example D] Powdery Mildew on Barley
After the sprayed dilutions were dried, conidia of Blumeria graminis f sp. hordei were inoculated to the plants by shaking off.

Alternaia brassicicola = assay: Test Example C: Alternaria sooty spot on cabbage; conditions: for Test C (control value class, Alternaria sooty spot on cabbage): in vivo; for Test C control value (Alternaria sooty spot on cabbage): preventive, control value class
From the text: [Test Example C] Alternaria Sooty Spot on Cabbage
Seeds of a test plant (cabbage variety: Shikidori) were planted followed by cultivating until the cotyledons extended.

Plasmopara viticola = assay: Test Example G: Downy mildew on vine; conditions: for Test G (control value class, downy mildew on vine): 250 ppm, sprayed 2.5 ml/pot before inoculation; for Test G (control value class): 250 ppm spray; for Test G control value (downy mildew on vine): 250 ppm spray (2.5 ml/pot), preventive, control value class
From the text: [Test Example G] Downy Mildew on Vine
Seeds of a test plant (grape variety: Neomuscat) were planted followed by cultivating until three to four first leaves appeared. […] After the sprayed dilutions were dried, a zoosporangia suspension (1-2×10^4 zoosporangia/ml) of Plasmopara viticola was inoculated to the plants by spraying.

[2] = evaluated 7-10 days after inoculation
[3] = Brown rust on wheat, control value=100{1-(n/3)}
[4] = Gray mold on tomato, control value=100{1-(n/3)}
[5] = Powdery mildew on barley, control value=100{1-(n/3)}
[6] = Alternaria sooty spot on cabbage, control value=100{1-(n/3)}
[7] = Downy mildew on vine, 2.5 ml/pot, evaluated 7-10 days after inoculation
[8] = brown rust on wheat, Puccinia recondita, 250 ppm spray
[9] = gray mold on tomato, Botrytis cinerea, 250 ppm spray
[10] = powdery mildew on barley, 250 ppm spray
[11] = Alternaria sooty spot on cabbage, 250 ppm spray
[12] = downy mildew on vine, Plasmopara viticola, 7-10 days after inoculation

CCn1c(-c2c(F)cc(OC)cc2F)c(-c2cccc(F)c2F)cc(Cl)c1=O [Compound 590]
Test E (control value class, brown rust on wheat) (Puccinia recondita): H (H shows more than 50% of control values) | Test B (control value class, gray mold on tomato) (Botrytis cinerea): H (H shows more than 50% of control values) | Test D (control value class, powdery mildew on barley) [1]: H (H shows more than 50% of control values) | Test C (control value class, Alternaria sooty spot on cabbage) (Alternaia brassicicola): H (H shows more than 50% of control values) | Test G (control value class, downy mildew on vine) (Plasmopara viticola; [2]): L (L shows 50% or less of control values)

CCn1c(-c2c(F)cc(OC)cc2F)c(-c2ccccc2Cl)cc(I)c1=O [Compound 822]
Test E (control value class) (Puccinia recondita; [3]): H (H shows more than 50% of control values) | Test B (control value class) (Botrytis cinerea; [4]): H (H shows more than 50% of control values) | Test D (control value class) [1, 5]: L (L shows 50% or less of control values) | Test C (control value class) (Alternaia brassicicola; [6]): H (H shows more than 50% of control values) | Test G (control value class) (Plasmopara viticola; [7]): L (L shows 50% or less of control values)

Cn1c(-c2c(F)cccc2F)c(-c2cc(F)ccc2F)cc(Br)c1=O [Compound 485]
Test E (control value class) (Puccinia recondita; [8]): H (H shows more than 50% of control values) | Test B (control value class) (Botrytis cinerea; [9]): H (H shows more than 50% of control values) | Test D (control value class) [1, 10]: H (H shows more than 50% of control values) | Test C (control value class) (Alternaia brassicicola; [11]): H (H shows more than 50% of control values) | Test G (control value class) (Plasmopara viticola; [12]): L (L shows 50% or less of control values)

COc1cc(F)c(-c2c(-c3cccc(F)c3F)cc(C)c(=O)n2C)c(F)c1 [Compound 565]
Test E (control value class, brown rust on wheat) (Puccinia recondita): H (H shows more than 50% of control values) | Test B (control value class, gray mold on tomato) (Botrytis cinerea): H (H shows more than 50% of control values) | Test D (control value class, powdery mildew on barley) [1]: H (H shows more than 50% of control values) | Test C (control value class, Alternaria sooty spot on cabbage) (Alternaia brassicicola): H (H shows more than 50% of control values) | Test G (control value class, downy mildew on vine) (Plasmopara viticola; [2]): H (H shows more than 50% of control values)

O=c1c(Cl)cc(-c2cc(Cl)ccc2F)c(-c2c(F)cccc2F)n1CC(F)F [Compound 540]
Test E (control value class) (Puccinia recondita; [8]): H (H shows more than 50% of control values) | Test B (control value class) (Botrytis cinerea; [9]): H (H shows more than 50% of control values) | Test D (control value class) [1, 10]: H (H shows more than 50% of control values) | Test C (control value class) (Alternaia brassicicola; [11]): H (H shows more than 50% of control values) | Test G (control value class) (Plasmopara viticola; [12]): L (L shows 50% or less of control values)

CCOc1cc(F)c(-c2c(-c3cccc(F)c3Cl)ccc(=O)n2CC)c(F)c1 [Compound 657]
Test E (control value class, brown rust on wheat) (Puccinia recondita): H (H shows more than 50% of control values) | Test B (control value class, gray mold on tomato) (Botrytis cinerea): H (H shows more than 50% of control values) | Test D (control value class, powdery mildew on barley) [1]: H (H shows more than 50% of control values) | Test C (control value class, Alternaria sooty spot on cabbage) (Alternaia brassicicola): H (H shows more than 50% of control values) | Test G (control value class, downy mildew on vine) (Plasmopara viticola; [2]): L (L shows 50% or less of control values)

CCn1c(-c2c(F)cc(F)cc2F)c(-c2cccc(F)c2Cl)cc(Cl)c1=O [Compound 488]
Test E (control value class) (Puccinia recondita; [8]): H (H shows more than 50% of control values) | Test B (control value class) (Botrytis cinerea; [9]): H (H shows more than 50% of control values) | Test D (control value class) [1, 10]: H (H shows more than 50% of control values) | Test C (control value class) (Alternaia brassicicola; [11]): H (H shows more than 50% of control values) | Test G (control value class) (Plasmopara viticola; [12]): L (L shows 50% or less of control values)

COc1cc(OC)c(Cl)c(C2=C(c3c(F)cccc3F)N(CC(F)F)C(=O)CC2)c1 [Compound 336]
Test E control value (brown rust on wheat) (Puccinia recondita; 250 ppm spray): H (H shows more than 50% of control values) | Test B control value (gray mold on tomato) (Botrytis cinerea; 250 ppm spray): H (H shows more than 50% of control values) | Test D control value (powdery mildew on barley) ([1]; 250 ppm spray): H (H shows more than 50% of control values) | Test C control value (Alternaria sooty spot on cabbage) (Alternaia brassicicola; 250 ppm spray): H (H shows more than 50% of control values) | Test G control value (downy mildew on vine) (Plasmopara viticola; 7-10 days after inoculation): H (H shows more than 50% of control values)

CCn1c(-c2c(F)cc(OC)cc2F)c(-c2cccc(F)c2Cl)ccc1=O [Compound 489]
Test E (control value class) (Puccinia recondita; [8]): H (H shows more than 50% of control values) | Test B (control value class) (Botrytis cinerea; [9]): H (H shows more than 50% of control values) | Test D (control value class) [1, 10]: H (H shows more than 50% of control values) | Test C (control value class) (Alternaia brassicicola; [11]): H (H shows more than 50% of control values) | Test G (control value class) (Plasmopara viticola; [12]): H (H shows more than 50% of control values)

CCCc1cc(-c2cc(OC)ccc2Cl)c(-c2c(F)cccc2F)n(CC)c1=O [Compound 370]
Test E control value (brown rust on wheat) (Puccinia recondita; 250 ppm spray): L (L shows 50% or less of control values) | Test B control value (gray mold on tomato) (Botrytis cinerea; 250 ppm spray): H (H shows more than 50% of control values) | Test D control value (powdery mildew on barley) ([1]; 250 ppm spray): L (L shows 50% or less of control values) | Test C control value (Alternaria sooty spot on cabbage) (Alternaia brassicicola; 250 ppm spray): H (H shows more than 50% of control values) | Test G control value (downy mildew on vine) (Plasmopara viticola; 7-10 days after inoculation): L (L shows 50% or less of control values)

CCn1c(-c2c(F)cc(OC)cc2F)c(-c2ccc(OC)cc2Cl)cc(Cl)c1=O [Compound 748]
Test E (control value class, brown rust on wheat) (Puccinia recondita): H (H shows more than 50% of control values) | Test B (control value class, gray mold on tomato) (Botrytis cinerea): L (L shows 50% or less of control values) | Test D (control value class, powdery mildew on barley) [1]: L (L shows 50% or less of control values) | Test C (control value class, Alternaria sooty spot on cabbage) (Alternaia brassicicola): H (H shows more than 50% of control values) | Test G (control value class, downy mildew on vine) (Plasmopara viticola; [2]): L (L shows 50% or less of control values)

CCOc1ccc(Cl)c(-c2cc(Cl)c(=O)n(CC)c2-c2c(F)cc(F)cc2F)c1 [Compound 793]
Test E (control value class) (Puccinia recondita; [3]): H (H shows more than 50% of control values) | Test B (control value class) (Botrytis cinerea; [4]): H (H shows more than 50% of control values) | Test D (control value class) [1, 5]: H (H shows more than 50% of control values) | Test C (control value class) (Alternaia brassicicola; [6]): H (H shows more than 50% of control values) | Test G (control value class) (Plasmopara viticola; [7]): L (L shows 50% or less of control values)

CCn1c(-c2c(F)cccc2F)c(-c2cc(OC)ccc2Cl)cc(Cl)c1=O [Compound 54, 3-chloro-5-(2-chloro-5-methoxyphenyl)-6-(2,6-difluorophenyl)-1-ethylpyridine-2(1H)-one]
Test E control value (Puccinia recondita; Brown rust on wheat): H (H shows more than 50% of control values) | Test B control value (Botrytis cinerea; Gray mold on tomato): H (H shows more than 50% of control values) | Test D control value ([1]; Powdery mildew on barley): H (H shows more than 50% of control values) | Test C control value (Alternaia brassicicola; Alternaria sooty spot on cabbage): H (H shows more than 50% of control values) | Test G control value (Plasmopara viticola; Downy mildew on vine, 250 ppm sprayed before inoculation, 7-10 days after inoculation): H (H shows more than 50% of control values)

CCn1c(-c2c(F)cc(F)cc2F)c(-c2cccc(OC)c2Cl)cc(Cl)c1=O [Compound 619]
Test E (control value class, brown rust on wheat) (Puccinia recondita): H (H shows more than 50% of control values) | Test B (control value class, gray mold on tomato) (Botrytis cinerea): H (H shows more than 50% of control values) | Test D (control value class, powdery mildew on barley) [1]: H (H shows more than 50% of control values) | Test C (control value class, Alternaria sooty spot on cabbage) (Alternaia brassicicola): H (H shows more than 50% of control values) | Test G (control value class, downy mildew on vine) (Plasmopara viticola; [2]): L (L shows 50% or less of control values)

CCn1c(-c2c(F)cccc2F)c(-c2cccc(OC)c2Cl)cc(Cl)c1=O [Compound 783]
Test E (control value class) (Puccinia recondita; [3]): H (H shows more than 50% of control values) | Test B (control value class) (Botrytis cinerea; [4]): H (H shows more than 50% of control values) | Test D (control value class) [1, 5]: H (H shows more than 50% of control values) | Test C (control value class) (Alternaia brassicicola; [6]): H (H shows more than 50% of control values) | Test G (control value class) (Plasmopara viticola; [7]): H (H shows more than 50% of control values)

CCn1c(-c2c(F)cccc2F)c(-c2cccc(Br)c2)ccc1=O [Compound 327]
Test E control value (brown rust on wheat) (Puccinia recondita; 250 ppm spray): H (H shows more than 50% of control values) | Test B control value (gray mold on tomato) (Botrytis cinerea; 250 ppm spray): L (L shows 50% or less of control values) | Test D control value (powdery mildew on barley) ([1]; 250 ppm spray): L (L shows 50% or less of control values) | Test C control value (Alternaria sooty spot on cabbage) (Alternaia brassicicola; 250 ppm spray): L (L shows 50% or less of control values) | Test G control value (downy mildew on vine) (Plasmopara viticola; 7-10 days after inoculation): L (L shows 50% or less of control values)
